What all share (experiment): protein-binding microarray (PBM)
Settings in all cases: PBM: ~300 nM protein, 6 mM HEPES pH 7.8, 80 mM KCl, 0.5 mM EDTA, 0.5 mM EGTA, 6% glycerol, 35 ng/ul poly-dIdC, 1% milk, 1 h, room temperature; Ap Aiptasia and Nv Nematostella (sea anemones) / Co Capsaspora / Aq Amphimedon (sponge) / Dm Drosophila / Hu human; RHD is the Rel homology domain; high values mean tight binding; most listed sequences are background and not binding sites; double strand, one strand shown

For assay [1], the target named is T1, GST-Ap-NF-kB RHD (UniProt A0A913YAJ5).
T1 sequence: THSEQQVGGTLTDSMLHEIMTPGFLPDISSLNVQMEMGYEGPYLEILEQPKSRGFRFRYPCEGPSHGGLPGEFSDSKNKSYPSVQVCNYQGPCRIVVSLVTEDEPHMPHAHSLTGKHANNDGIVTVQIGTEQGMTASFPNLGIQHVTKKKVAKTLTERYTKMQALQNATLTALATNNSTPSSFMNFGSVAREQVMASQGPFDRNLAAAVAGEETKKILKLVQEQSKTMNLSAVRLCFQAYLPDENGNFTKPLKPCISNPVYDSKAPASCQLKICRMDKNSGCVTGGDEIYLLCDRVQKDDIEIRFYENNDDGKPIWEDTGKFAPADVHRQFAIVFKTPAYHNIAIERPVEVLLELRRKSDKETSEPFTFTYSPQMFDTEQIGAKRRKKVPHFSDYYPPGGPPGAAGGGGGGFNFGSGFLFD

Assay [2] concerns the target T2, GST-Nv-NF-kB (Cys allele) (UniProt E5G601).
T2 sequence: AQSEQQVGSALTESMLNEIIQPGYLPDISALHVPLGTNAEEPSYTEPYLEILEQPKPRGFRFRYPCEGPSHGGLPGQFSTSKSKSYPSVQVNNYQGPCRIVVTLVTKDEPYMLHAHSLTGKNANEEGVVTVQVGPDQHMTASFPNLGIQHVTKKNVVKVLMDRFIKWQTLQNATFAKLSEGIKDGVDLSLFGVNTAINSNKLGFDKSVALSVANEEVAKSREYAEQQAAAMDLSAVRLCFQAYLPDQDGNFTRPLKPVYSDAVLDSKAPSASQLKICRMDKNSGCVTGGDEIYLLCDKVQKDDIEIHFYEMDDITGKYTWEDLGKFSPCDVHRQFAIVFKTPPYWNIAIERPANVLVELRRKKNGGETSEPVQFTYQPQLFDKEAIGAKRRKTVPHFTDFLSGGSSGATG

The target in assay [3] is T3, GST-Co-NF-kB (UniProt F1ARL5).
T3 sequence: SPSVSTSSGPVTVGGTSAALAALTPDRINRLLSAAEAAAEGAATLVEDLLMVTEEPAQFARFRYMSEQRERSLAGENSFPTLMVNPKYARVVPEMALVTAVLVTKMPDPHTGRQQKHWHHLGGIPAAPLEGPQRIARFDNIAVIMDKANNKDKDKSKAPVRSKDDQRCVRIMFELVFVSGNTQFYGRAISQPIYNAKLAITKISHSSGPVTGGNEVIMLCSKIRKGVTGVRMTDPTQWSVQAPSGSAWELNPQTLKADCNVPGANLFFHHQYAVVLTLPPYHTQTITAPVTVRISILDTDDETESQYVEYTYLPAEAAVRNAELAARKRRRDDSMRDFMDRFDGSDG

Assay [4] addresses T4, GST-Dm-Relish (UniProt Q94527).
T4 sequence: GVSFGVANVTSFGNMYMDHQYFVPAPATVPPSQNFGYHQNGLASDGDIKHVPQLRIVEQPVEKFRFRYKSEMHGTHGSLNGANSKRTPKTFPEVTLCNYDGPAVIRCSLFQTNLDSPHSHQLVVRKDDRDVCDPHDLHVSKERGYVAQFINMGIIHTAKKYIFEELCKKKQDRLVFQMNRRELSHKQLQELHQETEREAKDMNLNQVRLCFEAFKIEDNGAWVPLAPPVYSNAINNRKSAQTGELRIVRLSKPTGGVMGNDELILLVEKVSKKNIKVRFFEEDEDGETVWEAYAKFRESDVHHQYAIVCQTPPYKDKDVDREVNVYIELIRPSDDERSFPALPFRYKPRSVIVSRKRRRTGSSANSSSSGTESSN

Assay [5] has as its target T5, GST-Aq-NF-kB (UniProt A9Y5G7).
T5 sequence: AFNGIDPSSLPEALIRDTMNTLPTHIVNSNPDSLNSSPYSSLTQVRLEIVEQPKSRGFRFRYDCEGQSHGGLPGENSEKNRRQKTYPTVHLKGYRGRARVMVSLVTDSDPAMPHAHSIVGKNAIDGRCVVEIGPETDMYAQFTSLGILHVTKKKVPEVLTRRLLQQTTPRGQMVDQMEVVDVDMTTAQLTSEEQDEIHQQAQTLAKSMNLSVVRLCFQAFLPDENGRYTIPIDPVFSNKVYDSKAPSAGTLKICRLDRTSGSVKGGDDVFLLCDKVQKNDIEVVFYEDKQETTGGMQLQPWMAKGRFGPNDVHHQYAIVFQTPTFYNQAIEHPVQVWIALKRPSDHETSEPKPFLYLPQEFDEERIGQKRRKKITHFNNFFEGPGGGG

The entries are a selection whose mix differs from that of the whole data set. The list includes weakly bound sequences.

Regarding “CCGATTAACATCACTCATATGCTTGATGTTAATCGGGTCTTGATTCGCTTGACGCTGCTG”, the binding signal in assay [1] was -0.402 z-score; in assay [2], -0.00753 z-score; in assay [3], -0.627 z-score; in assay [4] it was -0.642 z-score; in assay [5], -0.507 z-score.
Regarding “CCGATTAACATCATAGACATGACTGATGTTAATCGGGTCTTGATTCGCTTGACGCTGCTG”, the binding signal was -0.599 z-score in assay [1]; -0.163 z-score in assay [2]; -0.674 z-score in assay [3]; -0.801 z-score in assay [4]; -0.466 z-score in assay [5].
As to “CCGATTAACATCAAGGCGCGGTCTGATGTTAATCGGGTCTTGATTCGCTTGACGCTGCTG”, the binding signal is 0.268 z-score in assay [1]; -0.93 z-score in assay [2]; -0.856 z-score in assay [3]; -0.661 z-score in assay [4]; -0.384 z-score in assay [5].
As for “CCGATTAACATCAGTGAGCGCCATGATGTTAATCGGGTCTTGATTCGCTTGACGCTGCTG”, the binding signal in assay [1] is 0.313 z-score; in assay [2], 0.0699 z-score; in assay [3], -0.108 z-score; in assay [4], -0.115 z-score; in assay [5] it was -0.256 z-score.
On the same counts, the results for “CCGATTAACATCAAATGCTTTTCTGATGTTAATCGGGTCTTGATTCGCTTGACGCTGCTG” are -0.319 z-score, 0.233 z-score, 0.433 z-score, 0.0837 z-score and -0.416 z-score.
On to “CCGATTAACATCAAAATTCCAGATGATGTTAATCGGGTCTTGATTCGCTTGACGCTGCTG”, for which the binding signal was 0.228 z-score in assay [1]; -0.0709 z-score in assay [2]; 0.256 z-score in assay [3]; 0.504 z-score in assay [4]; 0.713 z-score in assay [5].
On the same counts, the results for “CCGATTAACATCAGAGATCCATTTGATGTTAATCGGGTCTTGATTCGCTTGACGCTGCTG” are -0.806 z-score, -0.851 z-score, -0.63 z-score, -0.797 z-score and -0.458 z-score.
As for “CCGATTAACATCAGGAATTCACATGATGTTAATCGGGTCTTGATTCGCTTGACGCTGCTG”, the binding signal in assay [1] amounted to 0.259 z-score; in assay [2], 0.217 z-score; in assay [3], 0.597 z-score; in assay [4], 5.7 z-score; in assay [5], 0.66 z-score.
In the case of “CCGATTAACATCAGCCGCGGCTGTGATGTTAATCGGGTCTTGATTCGCTTGACGCTGCTG”, the binding signal in assay [1] was 0.0408 z-score; in assay [2], -0.647 z-score; in assay [3], -0.88 z-score; in assay [4], -0.0977 z-score; in assay [5], -0.375 z-score.
On to “CCGATTAACATCAATGGTGCGAGTGATGTTAATCGGGTCTTGATTCGCTTGACGCTGCTG”, for which the binding signal in assay [1] was 0.755 z-score; in assay [2], 0.0356 z-score; in assay [3], 0.389 z-score; in assay [4], 0.0605 z-score; in assay [5] it was -0.185 z-score.
Take “CCGATTAACATCAAAACCGGACATGATGTTAATCGGGTCTTGATTCGCTTGACGCTGCTG”: the binding signal was -0.141 z-score in assay [1]; 0.327 z-score in assay [2]; 0.015 z-score in assay [3]; -0.164 z-score in assay [4]; 0.158 z-score in assay [5].
In the case of “CCGATTAACATCATATACTGGAATGATGTTAATCGGGTCTTGATTCGCTTGACGCTGCTG”, the binding signal in assay [1] is -0.373 z-score; in assay [2], -0.657 z-score; in assay [3], 0.778 z-score; in assay [4], -0.0158 z-score; in assay [5], 0.0953 z-score.
For “CCGATTAACATCATGGCTGTATGTGATGTTAATCGGGTCTTGATTCGCTTGACGCTGCTG”, the binding signal in assay [1] was -0.164 z-score; in assay [2], 0.143 z-score; in assay [3], 0.499 z-score; in assay [4], 0.486 z-score; in assay [5] it was -0.428 z-score.
Turning to “CCGATTAACATCAAGGACATTCCTGATGTTAATCGGGTCTTGATTCGCTTGACGCTGCTG”, the binding signal was -0.0877 z-score in assay [1]; -0.184 z-score in assay [2]; -0.341 z-score in assay [3]; 0.36 z-score in assay [4]; 1.43 z-score in assay [5].

Values taken from publication PMC5700166.
